The other results are listed elsewhere or left out. Many values rest on one well or one pass, so single values are uncertain.

This assay deals with mouse mesenchymal chondrosarcoma cells (HEY1-NCOA2). Nature of the assay: XTT absorbance relative to DMSO control (cell viability) (fraction of DMSO control); higher = more viable cells / less growth inhibition. Background: Tetrazolium assays rely on reduction of a dye to a coloured formazan, in cell work by metabolically active cells.
`O=C1C2CCN(CC2)C1(CO)CO` returned an XTT absorbance of 0.985.
`COc1ccc(C[C@H]2NC[C@H](O)[C@H]2OC(C)=O)cc1` [anisomycin] yielded an XTT absorbance of 0.23.
`C[C@H]1CCC/C=C/[C@@H]2C[C@H](O)C[C@H]2[C@H](O)/C=C/C(=O)O1` [brefeldin A] registered an XTT absorbance of 0.188.
The same measure for `C[C@]12CCC(=O)C(O)=C1CC[C@@H]1[C@@H]2CC[C@]2(C)C(=O)CC[C@@H]12` [Formestane]: 1.03.
In turn, `CN1C(=O)[C@]2(Cc3cn([C@]45C[C@@]67SS[C@@](CO)(C(=O)N6[C@H]4Nc4ccccc45)N(C)C7=O)c4ccccc34)SS[C@@]1(CO)C(=O)N2C` [Chetomin] registered an XTT absorbance of 0.155.
The same measure for `CO[C@@H]1C[C@@H](C[C@H]2CC[C@H](C)[C@H]([C@@H](C)C(=O)O)O2)O[C@]2(O[C@](C)([C@H]3CC[C@@](C)([C@@H]4O[C@@H]([C@H]5O[C@@](O)(CO)[C@H](C)C[C@@H]5C)C[C@@H]4C)O3)C[C@H]2C)[C@@H]1C` [Nigericin]: 0.544; for `CN[C@@H]1C[C@H]2O[C@@](C)([C@@H]1OC)n1c3ccccc3c3c4c(c5c6ccccc6n2c5c31)C(=O)NC4` [Staurosporine]: 0.144; for `CC(C)(O)/C=C/C(=O)[C@](C)(O)[C@H]1[C@H](O)C[C@@]2(C)[C@@H]3CC=C4[C@@H](C=C(O)C(=O)C4(C)C)[C@]3(C)C(=O)C[C@]12C` [Cucurbitacin I]: 0.505.
The same measure for `CN(N=O)c1cc(O)ccc1O` [Dephostatin]: 0.908.
The compound `Cc1sc2c(c1C)C(c1ccc(Cl)cc1)=N[C@@H](CC(=O)OC(C)(C)C)c1nnc(C)n1-2` had an XTT absorbance of 0.605.

The values are drawn from the supplement of paper PMC10322689.
